Measured values taken from article PMC4336329 (PLoS ONE, 2015).
About 2,200 (0.71%) of roughly 310,000 compounds showed an effect of 50% or more. The effect is printed as a negative number. The list shows a part of the results.

Each molecule was assayed against human ether-à-go-go-related gene (hERG) potassium channel (human, UniProt Q12809) (assay: primary screen, population patch clamp on CHO cells stably expressing hERG).
Sequence of human ether-à-go-go-related gene (hERG) potassium channel (Q12809 whole entry, looked up): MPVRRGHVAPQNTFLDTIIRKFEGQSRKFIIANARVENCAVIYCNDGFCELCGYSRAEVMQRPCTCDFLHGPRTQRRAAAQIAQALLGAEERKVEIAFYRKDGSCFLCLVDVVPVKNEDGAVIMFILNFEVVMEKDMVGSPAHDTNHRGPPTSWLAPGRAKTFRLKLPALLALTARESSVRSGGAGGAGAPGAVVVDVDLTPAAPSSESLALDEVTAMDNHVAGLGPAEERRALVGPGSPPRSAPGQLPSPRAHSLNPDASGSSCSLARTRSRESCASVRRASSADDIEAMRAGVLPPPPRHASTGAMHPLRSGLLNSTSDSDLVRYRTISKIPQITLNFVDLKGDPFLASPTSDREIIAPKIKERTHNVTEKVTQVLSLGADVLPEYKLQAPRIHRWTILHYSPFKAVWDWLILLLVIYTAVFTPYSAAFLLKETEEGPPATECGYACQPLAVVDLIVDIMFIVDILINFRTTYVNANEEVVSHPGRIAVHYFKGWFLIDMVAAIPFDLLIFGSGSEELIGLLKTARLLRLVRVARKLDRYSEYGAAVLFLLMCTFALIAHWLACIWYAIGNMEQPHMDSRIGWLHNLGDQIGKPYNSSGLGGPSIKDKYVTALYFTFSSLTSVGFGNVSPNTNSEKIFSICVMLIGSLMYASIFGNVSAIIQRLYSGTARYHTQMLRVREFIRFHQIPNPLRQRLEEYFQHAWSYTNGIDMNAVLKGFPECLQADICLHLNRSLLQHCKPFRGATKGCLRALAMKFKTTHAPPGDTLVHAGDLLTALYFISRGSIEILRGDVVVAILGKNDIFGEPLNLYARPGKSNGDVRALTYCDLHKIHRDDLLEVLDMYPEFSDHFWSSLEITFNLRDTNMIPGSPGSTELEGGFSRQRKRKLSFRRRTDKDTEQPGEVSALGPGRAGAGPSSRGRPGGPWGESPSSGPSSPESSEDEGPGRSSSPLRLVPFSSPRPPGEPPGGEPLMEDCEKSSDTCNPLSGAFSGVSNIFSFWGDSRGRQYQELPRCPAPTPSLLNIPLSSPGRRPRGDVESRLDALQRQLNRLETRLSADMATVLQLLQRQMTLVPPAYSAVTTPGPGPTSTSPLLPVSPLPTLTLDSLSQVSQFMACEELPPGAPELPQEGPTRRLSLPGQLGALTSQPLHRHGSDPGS

Row | SMILES | hERG current change (%, negative = inhibition) at 1uM
1 | CN(C)c1ccc(C2CC(c3cccc(NS(C)(=O)=O)c3)=NN2C(=O)c2ccccc2)cc1 (centres unmarked) | 17.8%
2 | Cc1ccc(S(=O)(=O)c2c(N)n(CCN3CCOCC3)c3nc4ccccc4nc23)cc1C | -5.02%
3 | COc1ccccc1/C=C/C(=O)OCC(=O)Nc1ccc(Cl)cn1 | 21.6%
4 | Cc1nnc(SCC(=O)NC2CCCCCC2)n1C(C)C | 0.341%
5 | NC(=O)[C@@H]1CC2(CC(c3cccc(NC(=O)[C@@H]4CCC(=O)N4)c3)=NO2)CN1C(=O)Cc1ccc([N+](=O)[O-])cc1 (some centres unmarked) | 8.18%
6 | BrC(/C=N/Nc1nc(N2CCOCC2)nc(N2CCOCC2)n1)=C/c1ccccc1 | 12%
7 | COCCN(CC(=O)NCc1ccccc1)C(=O)CCC(=O)Nc1ccccn1 | -1.53%
8 | CC1(C)OC(c2ccccc2)=C/C(=C/C=C2C(=O)c3ccccc3C2=O)O1 | 16.6%
9 | CN1CCN(Cc2nc3cc(NC(=O)COc4ccc([N+](=O)[O-])cc4)ccc3n2C)CC1 | 14.1%
10 | CC(C)Cn1c(NCCO)nc2ccccc21 | 5.88%
11 | Cc1cccc(OCCCCc2c(C)n[nH]c2C)c1 | 10.4%
12 | Cl.N=c1c[n+](-c2ccc(Cl)cc2)[n-]o1 | 5.36%
13 | Cc1ccc(-n2nc3c(c2NC(=O)/C=C\c2ccc4c(c2)OCO4)CSC3)c(C)c1 | 12.1%
14 | O=C(Cc1c[nH]c2ccccc12)NCc1ccccc1F | 18.2%
15 | Cc1[nH]n(C(N)=S)c(=O)c1N=Nc1ccc([N+](=O)[O-])cc1Cl | 14.5%
16 | COc1cccc(-c2cnc(OC(C)(C)C)nc2OC(C)(C)C)c1 | 15.2%
17 | Cc1cc(NC(=O)c2ccc3c(c2)OCO3)ccc1NC(=O)c1ccco1 | 7.26%
18 | COc1ccc(N2CCN(C(=O)c3ccc4c(Cl)c5c(nc4c3)CCCC5)CC2)cc1 | 5.91%
19 | O=C(NNS(=O)(=O)c1ccc(Br)cc1)c1ccccc1-n1cccc1 | -4.47%
20 | O=C(O)/C=C\C(=O)NNC(=O)c1cc(-c2ccccc2)n[nH]1 | 6.09%
21 | O=C(c1cccc([N+](=O)[O-])c1)N1CC2C3C=CC(C3)C2C1 (centres unmarked) | 22.4%
22 | COc1cccc(C(=O)Nc2cc(C(=O)NCc3ccc(C)cc3)ccc2N2CCC3(CC2)CC(c2ccccc2)=NO3)c1 | 9.12%
23 | CCc1cc2c(=O)c(-c3ccc(F)cc3)c(C(F)(F)F)oc2cc1OCC(=O)O | 10.1%
